Test results taken from the supplement of paper PMC11125491.
± gives the standard deviation of the averaged measurements. Growth of baker's yeast expressing single-residue variants of Pneumocystis jirovecii dihydrofolate reductase in 8.8 or 44 µM methotrexate (about 75% and 90% inhibition of the wild type). Selection coefficient per generation; 0 = like wild type, above 0 = less sensitive, below 0 = more sensitive or loss of function. No active / inactive call per row; the paper calls resistant above 0.220 (8.8 µM) or 0.243 (44 µM) together with a significance test. At 44 µM about 15% of codons end with one read or none, so the lowest values are floors (replicate rank correlation 0.74; 0.94 at 8.8 µM).

B1: UniProt A0EPZ9; numbered along this chain (parent)
chain: MDWQKSLTLIVALTLSRGIGLKNDLPWKLKSDMMFFSRVTSGLLVTRSTGQMNVVLMGRKTWESLPAHSRPLKNRINVVISRQEVLDLGGGAYHARSLDDALALLSQIYDSTSKIQLNRVFVIGGGELCKAAMEHSRLNRIIATVIHNEVDCDVFFPIDFRSSQSCLPWRKQDHSVLEAWVGSKVPQGKINENGFIYEFEMWIRDI

Variants of: B1
Test: selection coefficient against synonymous wild-type codons (log2 per generation); higher = faster growth than wild type
Conditions: with Saccharomyces cerevisiae carrying the variant on a plasmid
Description: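 Pooled growth of yeast carrying single-residue variants of P. jirovecii dihydrofolate reductase (own DFR1 gene intact), two passages at 30 °C, three cultures, sequenced before and after. Codons with under 15 starting reads are left out; codons of one change are averaged.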

Variant | selection coefficient against synonymous wild-type codons (log2) (methotrexate 8.8 µM) | selection coefficient against synonymous wild-type codons (log2) (methotrexate 44 µM)
N74V | -0.706 ± 0.11 | -0.0554 ± 0.44
N74K | -0.404 ± 0.0087 | -0.217 ± 0.15
N74Y | -0.371 ± 0.21 | -0.0282 ± 0.074
N74D | 0.0567 ± 0.026 | 0.0855 ± 0.026
N74W | -0.666 ± 0.12 | -0.206 ± 0.078
N74I | -0.646 ± 0.071 | -0.187 ± 0.065
N74Q | -0.35 ± 0.017 | -0.33 ± 0.043
N74G | 0.0285 ± 0.055 | 0.101 ± 0.12
N74M | -0.418 ± 0.083 | -0.0907 ± 0.18
N74A | -0.318 ± 0.089 | -0.15 ± 0.13
N74R | -0.481 ± 0.16 | -0.212 ± 0.064
N74H | -0.273 ± 0.087 | -0.217 ± 0.061
N74P | -0.524 ± 0.097 | -0.0448 ± 0.061
N74L | -0.646 ± 0.13 | -0.253 ± 0.098
N74C | -0.391 ± 0.13 | -0.349 ± 0.052
N74F | -0.525 ± 0.073 | -0.196 ± 0.051
N74S | -0.335 ± 0.061 | -0.182 ± 0.11
N74T | -0.542 ± 0.18 | -0.181 ± 0.12
N74E | -0.296 ± 0.046 | -0.143 ± 0.18
I80C | -0.63 ± 0.11 | -0.171 ± 0.053
I80A | -0.636 ± 0.1 | -0.133 ± 0.092
V78T | -0.59 ± 0.032 | -0.0878 ± 0.052
V78A | -0.816 ± 0.051 | -0.269 ± 0.073
V78R | -0.746 ± 0.077 | -0.257 ± 0.073

Variant | selection coefficient against synonymous wild-type codons (log2) (methotrexate 8.8 µM) | selection coefficient against synonymous wild-type codons (log2) (methotrexate 44 µM)
V78C | -0.528 ± 0.08 | -0.225 ± 0.039
V78Q | -0.716 ± 0.054 | -0.212 ± 0.036
V78P | -0.675 ± 0.054 | -0.172 ± 0.049
V78E | -0.784 ± 0.027 | -0.237 ± 0.079
V78K | -0.679 ± 0.16 | -0.289 ± 0.038
V78G | -0.683 ± 0.12 | -0.249 ± 0.049
V78W | -0.731 ± 0.028 | -0.227 ± 0.057
V78M | -0.314 ± 0.067 | -0.201 ± 0.094
V78L | -0.534 ± 0.089 | -0.102 ± 0.13
V78I | 0.107 ± 0.039 | 0.179 ± 0.023
V78S | -0.624 ± 0.11 | -0.211 ± 0.073
V78F | -0.351 ± 0.066 | 0.171 ± 0.58
V79L | -0.572 ± 0.11 | -0.113 ± 0.042
V79Y | -0.505 ± 0.037 | -0.00391 ± 0.071
V79D | -0.534 ± 0.071 | -0.119 ± 0.059
V79W | -0.814 ± 0.095 | -0.123 ± 0.49
V79I | -0.0155 ± 0.12 | 0.149 ± 0.055
V79K | -0.65 ± 0.1 | -0.191 ± 0.072
V79Q | -0.593 ± 0.071 | -0.0914 ± 0.011
V79C | -0.637 ± 0.14 | -0.221 ± 0.026
V79G | -0.784 ± 0.095 | -0.336 ± 0.044
V79R | -0.595 ± 0.095 | -0.144 ± 0.2
V79E | -0.702 ± 0.12 | -0.354 ± 0.047
V79S | -0.645 ± 0.1 | -0.142 ± 0.11

Variant | selection coefficient against synonymous wild-type codons (log2) (methotrexate 8.8 µM) | selection coefficient against synonymous wild-type codons (log2) (methotrexate 44 µM)
V79H | -0.507 ± 0.038 | -0.00599 ± 0.099
V79T | -0.755 ± 0.057 | -0.294 ± 0.055
V79P | -0.672 ± 0.03 | -0.17 ± 0.047
V79M | -0.649 ± 0.23 | -0.248 ± 0.029
V79A | -0.67 ± 0.15 | -0.251 ± 0.13
R75I | -0.494 ± 0.089 | -0.00194 ± 0.14
R75D | -0.61 ± 0.033 | -0.108 ± 0.044
R75V | -0.1 ± 0.066 | 0.0692 ± 0.12
R75K | 0.137 ± 0.043 | 0.229 ± 0.11
R75F | -0.605 ± 0.08 | -0.146 ± 0.042
R75L | -0.401 ± 0.08 | -0.165 ± 0.13
R75T | -0.285 ± 0.11 | -0.0304 ± 0.13
R75Q | -0.647 ± 0.13 | -0.274 ± 0.12
R75S | -0.347 ± 0.1 | -0.147 ± 0.12
R75H | -0.721 ± 0.038 | -0.261 ± 0.027
R75A | -0.37 ± 0.087 | -0.0894 ± 0.074
R75N | -0.468 ± 0.017 | -0.14 ± 0.17
R75W | -0.681 ± 0.12 | -0.393 ± 0.12
R75G | -0.515 ± 0.32 | -0.183 ± 0.29
R75P | -0.518 ± 0.12 | -0.0726 ± 0.073
R75Y | -0.565 ± 0.072 | -0.106 ± 0.048
R75E | -0.57 ± 0.2 | -0.319 ± 0.04
R75M | -0.505 ± 0.074 | -0.107 ± 0.094
R75C | -0.0968 ± 0.059 | 0.085 ± 0.017

Variant | selection coefficient against synonymous wild-type codons (log2) (methotrexate 8.8 µM) | selection coefficient against synonymous wild-type codons (log2) (methotrexate 44 µM)
I76P | -0.658 ± 0.04 | -0.155 ± 0.053
I76E | -0.619 ± 0.12 | -0.261 ± 0.046
I76A | -0.58 ± 0.13 | -0.121 ± 0.1
I76V | -0.0765 ± 0.037 | -0.17 ± 0.16
I76S | -0.606 ± 0.11 | -0.212 ± 0.045
I76N | -0.485 ± 0.052 | 0.0161 ± 0.1
I76D | -0.698 ± 0.025 | -0.194 ± 0.057
I76L | -0.219 ± 0.078 | -0.184 ± 0.098
I76R | -0.637 ± 0.11 | -0.178 ± 0.025
I76T | -0.554 ± 0.16 | -0.142 ± 0.16
I76G | -0.83 ± 0.041 | -0.325 ± 0.04
I76Y | -0.566 ± 0.15 | -0.207 ± 0.047
I76K | -0.699 ± 0.042 | -0.196 ± 0.047
I76M | -0.439 ± 0.063 | -0.0817 ± 0.098
I76W | -0.734 ± 0.032 | -0.23 ± 0.044
I76C | -0.425 ± 0.22 | -0.136 ± 0.051
I76Q | -0.611 ± 0.012 | -0.108 ± 0.076
I76F | -0.516 ± 0.093 | -0.127 ± 0.07
N77T | 0.248 ± 0.026 | 0.338 ± 0.046
N77L | 0.227 ± 0.063 | 0.527 ± 0.13
N77D | -0.276 ± 0.054 | -0.133 ± 0.1
N77K | -0.364 ± 0.1 | -0.247 ± 0.059
N77V | 0.402 ± 0.051 | 0.621 ± 0.019
N77M | 0.233 ± 0.05 | 0.375 ± 0.017

Variant | selection coefficient against synonymous wild-type codons (log2) (methotrexate 8.8 µM) | selection coefficient against synonymous wild-type codons (log2) (methotrexate 44 µM)
N77C | 0.23 ± 0.066 | 0.335 ± 0.049
N77H | -0.055 ± 0.05 | -0.0473 ± 0.18
N77W | -0.648 ± 0.1 | -0.257 ± 0.0083
N77Y | -0.556 ± 0.019 | -0.328 ± 0.034
N77A | 0.201 ± 0.024 | 0.29 ± 0.076
N77E | -0.0531 ± 0.037 | 0.152 ± 0.058
N77P | -0.303 ± 0.11 | -0.158 ± 0.058
N77Q | -0.256 ± 0.015 | -0.171 ± 0.09
N77R | -0.502 ± 0.1 | -0.244 ± 0.13
N77G | -0.494 ± 0.12 | -0.251 ± 0.085
N77S | -0.125 ± 0.053 | -0.117 ± 0.096
K73W | -0.261 ± 0.07 | -0.263 ± 0.2
K73V | -0.172 ± 0.058 | -0.178 ± 0.037
K73N | -0.161 ± 0.066 | -0.218 ± 0.038
K73Y | -0.321 ± 0.077 | -0.0731 ± 0.083
K73S | -0.0745 ± 0.074 | -0.0292 ± 0.098
K73Q | -0.0529 ± 0.023 | -0.0632 ± 0.17
K73R | -0.145 ± 0.15 | -0.0449 ± 0.053
K73T | -0.132 ± 0.081 | -0.0929 ± 0.044
K73P | 0.113 ± 0.11 | 0.0681 ± 0.15
